Results taken from PubChem BioAssay (NCI).
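Following 48 hours of exposure in 96-well plates, responses at five concentrations were used to interpolate endpoints linearly. Definition used: TGI = concentration required for complete inhibition of growth.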

Tests used:
Assay in all cases: DTP human tumour cell line panel, 48 h
SK-MEL-28 melanoma = test system: SK-MEL-28 melanoma
NCI-H460 lung = test system: NCI-H460 lung
SF-268 CNS = test system: SF-268 CNS
OVCAR-5 ovarian = test system: OVCAR-5 ovarian
RPMI-8226 leukemia = test system: RPMI-8226 leukemia
SK-MEL-2 melanoma = test system: SK-MEL-2 melanoma
CAKI-1 renal = test system: CAKI-1 renal
A498 renal = test system: A498 renal
ACHN renal = test system: ACHN renal
MCF7 breast = test system: MCF7 breast
HOP-62 NSCLC = test system: HOP-62 NSCLC
PC-3 prostate = test system: PC-3 prostate
786-0 renal = test system: 786-0 renal
RXF 393 renal = test system: RXF 393 renal
DU-145 prostate = test system: DU-145 prostate
SW-620 colon = test system: SW-620 colon
NCI-H522 lung = test system: NCI-H522 lung
MDA-N = test system: MDA-N
LOX IMVI melanoma = test system: LOX IMVI melanoma
COLO 205 colon = test system: COLO 205 colon
SN12C renal = test system: SN12C renal
HCT-116 colon = test system: HCT-116 colon
HOP-92 NSCLC = test system: HOP-92 NSCLC
NCI/ADR-RES ovarian = test system: NCI/ADR-RES ovarian
HCT-15 colon = test system: HCT-15 colon
SF-295 CNS = test system: SF-295 CNS
SNB-75 CNS = test system: SNB-75 CNS
U251 CNS = test system: U251 CNS
HCC-2998 colon = test system: HCC-2998 colon
A549 NSCLC = test system: A549 NSCLC
EKVX NSCLC = test system: EKVX NSCLC
OVCAR-4 ovarian = test system: OVCAR-4 ovarian
BT-549 breast = test system: BT-549 breast
UACC-257 melanoma = test system: UACC-257 melanoma
TK-10 renal = test system: TK-10 renal
SK-OV-3 ovarian = test system: SK-OV-3 ovarian
NCI-H23 lung = test system: NCI-H23 lung
KM12 colon = test system: KM12 colon
UO-31 renal = test system: UO-31 renal
NCI-H226 lung = test system: NCI-H226 lung
HS 578T breast = test system: HS 578T breast
M14 melanoma = test system: M14 melanoma
OVCAR-8 ovarian = test system: OVCAR-8 ovarian
OVCAR-3 ovarian = test system: OVCAR-3 ovarian
UACC-62 melanoma = test system: UACC-62 melanoma
MOLT-4 leukemia = test system: MOLT-4 leukemia
SNB-19 CNS = test system: SNB-19 CNS
K-562 leukemia = test system: K-562 leukemia
MDA-MB-231 breast = test system: MDA-MB-231 breast
T-47D breast = test system: T-47D breast
MDA-MB-435 = test system: MDA-MB-435

SMILES: O=C1Cc2c([nH]c3ccc(Br)cc23)-c2cccc(O)c2N1
- TGI (SK-MEL-28 melanoma): > 100 µM
- TGI (NCI-H460 lung): 66.9 µM
- TGI (SF-268 CNS): > 100 µM
- TGI (OVCAR-5 ovarian): > 100 µM
- TGI (RPMI-8226 leukemia): 38.6 µM
- TGI (SK-MEL-2 melanoma): > 100 µM
- TGI (CAKI-1 renal): > 100 µM
- TGI (A498 renal): > 100 µM
- TGI (ACHN renal): > 100 µM
- TGI (MCF7 breast): > 100 µM
- TGI (HOP-62 NSCLC): > 100 µM
- TGI (PC-3 prostate): > 100 µM
- TGI (786-0 renal): > 100 µM
- TGI (RXF 393 renal): > 100 µM
- TGI (DU-145 prostate): 92 µM
- TGI (SW-620 colon): > 100 µM
- TGI (NCI-H522 lung): 42.2 µM
- TGI (MDA-N): > 100 µM
- TGI (LOX IMVI melanoma): 59.8 µM
- TGI (COLO 205 colon): > 100 µM
- TGI (SN12C renal): > 100 µM
- TGI (HCT-116 colon): > 100 µM
- TGI (HOP-92 NSCLC): > 100 µM
- TGI (NCI/ADR-RES ovarian): 53.4 µM
- TGI (HCT-15 colon): 44.3 µM
- TGI (SF-295 CNS): > 100 µM
- TGI (SNB-75 CNS): 98.3 µM
- TGI (U251 CNS): > 100 µM
- TGI (HCC-2998 colon): 93.1 µM
- TGI (A549 NSCLC): > 100 µM
- TGI (EKVX NSCLC): > 100 µM
- TGI (OVCAR-4 ovarian): > 100 µM
- TGI (BT-549 breast): 46.4 µM
- TGI (UACC-257 melanoma): 73 µM
- TGI (TK-10 renal): 89.7 µM
- TGI (SK-OV-3 ovarian): > 100 µM
- TGI (NCI-H23 lung): 66.5 µM
- TGI (KM12 colon): > 100 µM
- TGI (UO-31 renal): > 100 µM
- TGI (NCI-H226 lung): > 100 µM
- TGI (HS 578T breast): 61 µM
- TGI (M14 melanoma): > 100 µM
- TGI (OVCAR-8 ovarian): 41 µM
- TGI (OVCAR-3 ovarian): 69.8 µM
- TGI (UACC-62 melanoma): > 100 µM
- TGI (MOLT-4 leukemia): > 100 µM
- TGI (SNB-19 CNS): > 100 µM
- TGI (K-562 leukemia): > 100 µM
- TGI (MDA-MB-231 breast): > 100 µM
- TGI (T-47D breast): 59.2 µM
- TGI (MDA-MB-435): > 100 µM
